In PubChem BioAssay AID1159614 (National Center for Advancing Translational Sciences (NCATS), 2016):
Among all 45,000 compounds or so, about 65 (0.1%) were called active. Calls come from the whole dose curve; as a rule, active = well fitted activation curve with a large enough effect; inconclusive = small, poorly fitted or top-dose-only effect; inactive = no such curve, though single readings can be large or run the other way. The list shows a part of the results.

target: Galactocerebrosidase (Homo sapiens) (UniProt P54803); assay: A Novel Cell-Based Assay to Identify Small Molecules for B -Galactocerebrosidase; details: 145M-Twi-hGALC-G270D cells (Twitcher mouse brain line with human GALC G270D), HMU-beta-Gal fluorescence, 48 h; series mostly up to 57.5 µM; activation: at the top concentration; note: 0% is about no effect; nearly all actives have a fitted effect of over 65% in size
How it was run: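 Mutant human GALC (G270D), stably expressed in a Twitcher mouse brain cell line lacking endogenous GALC, is measured in live-treated cells via 6-hexadecanoylamino-4-methylumbelliferyl-β-galactoside hydrolysis (0.1 mM final, pH 5.2) with fluorescent detection.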

Chain of UniProt P54803 (P54803 whole entry, looked up): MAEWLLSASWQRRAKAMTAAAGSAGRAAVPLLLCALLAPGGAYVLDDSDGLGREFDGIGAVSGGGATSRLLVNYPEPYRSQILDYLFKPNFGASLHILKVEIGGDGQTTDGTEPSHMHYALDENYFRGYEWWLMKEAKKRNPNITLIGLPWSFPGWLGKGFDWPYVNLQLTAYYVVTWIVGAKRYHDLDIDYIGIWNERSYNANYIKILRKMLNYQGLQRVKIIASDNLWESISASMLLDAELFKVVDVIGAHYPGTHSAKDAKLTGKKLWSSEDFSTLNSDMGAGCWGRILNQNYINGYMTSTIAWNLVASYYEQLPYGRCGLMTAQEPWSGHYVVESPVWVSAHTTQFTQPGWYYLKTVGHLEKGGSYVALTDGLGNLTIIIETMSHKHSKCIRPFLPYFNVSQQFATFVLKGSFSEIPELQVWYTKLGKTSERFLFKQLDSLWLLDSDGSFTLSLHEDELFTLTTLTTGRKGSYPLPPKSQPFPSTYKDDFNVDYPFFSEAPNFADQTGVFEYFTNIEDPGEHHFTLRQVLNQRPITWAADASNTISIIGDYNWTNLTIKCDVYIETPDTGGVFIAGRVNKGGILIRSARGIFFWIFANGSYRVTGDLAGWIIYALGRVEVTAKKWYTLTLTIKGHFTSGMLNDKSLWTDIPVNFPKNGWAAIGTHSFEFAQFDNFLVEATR

activation, inactive:
Cc1ccccc1Nc1nc(-c2cccc(Cl)c2)c2c(n1)-c1ccccc1OC2 -7.06%
CC(NC(=O)Cn1c(=O)oc2cc(S(=O)(=O)NCc3ccccc3)ccc21)c1ccccc1 (stereo unspecified) -23.1%
CC(=O)c1ccc(NC(=O)COc2ccccc2-c2nc(-c3cccc(C)c3)no2)cc1 -14%
O=C(Nc1cc(C(F)(F)F)ccc1Cl)c1cc(-c2ccc3c(c2)OCCO3)on1 -11%
COC(=O)c1cccnc1-n1c(=O)c2cccnc2n(CC(=O)Nc2ccc(C)cc2C)c1=O 8.46%
Cc1ccc2c(c1)N(C(=O)CCC(=O)NCc1ccccc1Cl)CC(C)O2 (stereo unspecified) -12.9%
O=C(Nc1ccc(S(=O)(=O)Nc2ncccn2)cc1)c1ccccc1Cl -19%
Cn1c(=O)c2c(ncn2CC(=O)Nc2cccc(Cl)c2Cl)n(C)c1=O -8.59%
Cc1cccc(NC(=O)Nc2nnc(N(C)Cc3ccccc3)s2)c1 -1.92%
CC(=O)c1ccc(NC(=O)c2sc(-n3nc(C)c(Cc4ccccc4)c3C)nc2C)cc1 -17%
CCOCCCNc1ncnc2onc(C)c12 -25.2%
Cc1ccc(Cl)cc1N1CCN(S(=O)(=O)c2ccc3c(c2)CC(C)N3C(=O)C2CCC2)CC1 (stereo unspecified) -12.7%
COc1ccc(-c2nn3c(-c4ccccc4C)nnc3c3ccccc23)cc1 -15.2%
CN(C(=O)Cn1cc(S(=O)(=O)Cc2ccccc2Cl)c2ccccc21)c1ccccc1 -10.9%
CCN(Cc1ccccc1)Cc1c(O)ccc2c(=O)c(-c3ccc(Cl)cc3Cl)coc12 12.2%
Cc1noc(/C=C/c2cccs2)c1S(=O)(=O)N1CCC(C(=O)NCc2ccccc2Cl)CC1 2.31%
Cc1ccccc1C(=O)NC1(C(F)(F)F)C(=O)Nc2c1c(=O)[nH]c(=O)n2-c1ccc(F)cc1 (stereo unspecified) -7.97%
COc1cccc(Cn2c(CNC(=O)c3cc([N+](=O)[O-])ccc3Cl)nc3cccnc32)c1 6.12%
CCCc1cnc2c(c1SCC(=O)Nc1ccc(C)c(Cl)c1)c(=O)n(C)c(=O)n2C -6.58%
COc1cc(/C=C(\C#N)c2nc3ccccc3[nH]2)ccc1OCc1cccc(C(F)(F)F)c1 7.82%
CCOc1ccccc1NC(=O)c1ccc(F)c(S(=O)(=O)NCc2ccc3c(c2)OCO3)c1 -18.1%
CCCCNC(=O)CCCn1c(=O)c2ccccc2n(CC(=O)Nc2ccccc2OCC)c1=O -8.73%
COc1ccc(CNc2ncnc3onc(-c4ccc(F)cc4)c23)cc1 -26.2%
CCOc1ccccc1NC(=O)N1CCc2c(sc(C)c2CC)C1c1ccccc1 (stereo unspecified) -12.5%
CC(Oc1ccccc1)C(=O)Nc1nnc2n1CCS2 (stereo unspecified) -14.7%
CCOc1ccccc1NC(=O)Cn1c(=O)ccc2cc(S(=O)(=O)N3CCCC3)ccc21 -6.62%
CC(=O)N1CCc2nc3sc(C(=O)Nc4ccc(Cl)cc4F)c(N)c3c(C(F)(F)F)c2C1 -7.83%
COC(=O)c1cccc(-n2c(CCC(=O)O)ccc2-c2cccs2)c1 3.08%
COc1ccc(C(=O)Nc2ccc(-c3nnc4n3CCCCC4)cc2)cc1OC -11.7%
O=C(c1cc2ccc3cccnc3c2[nH]1)N1CCN(c2ccccc2)CC1 -12.5%
COc1ccc(Cn2c(C(=O)O)c(CNCc3ccc(C)o3)c3ccc(C)cc32)cc1 9.79%
COc1cc(-c2nc3nc(C)cc(C)n3c2Nc2ccc(Cl)cc2)ccc1O -0.923%
CCc1ccccc1N1CC(c2nc3ccccc3n2CCCCOc2ccccc2)CC1=O (stereo unspecified) -15.2%
O=C(NC1CCCC1)c1ccc(CSc2nc3cccnc3n2Cc2ccc(F)cc2)cc1 -9.38%
CC(C)c1nc2ccc(C(=O)NC(C)c3ccccc3)cc2o1 (stereo unspecified) 8.84%
CCOC(=O)c1ccc2ncc3c(-c4ccccc4)nn(-c4ccc(F)c(Cl)c4)c3c2c1 -1.04%
CCOc1ccc(NC(=O)CSc2ncc3c(n2)-c2ccccc2N(Cc2ccccc2C)S3(=O)=O)cc1 -10%
CCCn1c2ccccc2c2cnn(CC(=O)N(CCCOC)Cc3ccco3)c(=O)c21 19.1%
Oc1ccccc1-c1nc(/C=C/c2ccc(F)cc2)nn1-c1ccccc1 -13.3%
CC(=O)c1ccc(N2CCN(S(=O)(=O)c3ccc4c(c3)C(C)(C)C(=O)N4)CC2)cc1 -11.7%
COc1cccc(/C=C/C(=O)Nc2ccc3nc(N4CCN(C)CC4)cc(C)c3c2)c1OC -0.199%
CCN1C(C(=O)c2ccccc2)=C(OC(=O)c2ccccc2OC)c2ccccc2S1(=O)=O -12.8%
Cc1cc(C(=O)NCc2ccccc2Cl)c2c(C)nn(-c3ccccc3)c2n1 -10.4%
COc1cc(NC(=O)CSc2ncccc2C(=O)OC(C)C)cc(OC)c1 -16.5%
COc1ccc(CCNC(=O)CS(=O)Cc2nc(-c3ccccc3F)oc2C)cc1OC (stereo unspecified) -10.7%
CCc1ccc(S(=O)(=O)c2nnn3c2nc(NC(C)C)c2sccc23)cc1 -8.2%
COc1ccc(CCNC(=O)c2ccc3c(c2)ncn3-c2ccc(C)cc2C)cc1OC 5.13%
CC(C)CCNC(=O)CN1C(=O)CSc2ccc(S(=O)(=O)N3CCCCC3)cc21 4.11%
Cc1c(C(=O)N2CCN(c3ccccc3)CC2)sc2nc3n(c(=O)c12)CCC3 -13.7%
COc1cccc(CNC(=O)C2CCN(c3nnc(-n4c(C)ccc4C)s3)CC2)c1OC -2.68%
O=S1(=O)c2ccccc2N(Cc2cccc(Cl)c2)c2ccccc21 -20.6%
CCOc1ccc(-c2nc(CSCC(=O)NCc3ccc(Cl)cc3)c(C)o2)cc1 -3.28%
CCN(CC)CCNC(=O)c1ccc2c(=O)n3nc(Nc4ccccc4OC)sc3nc2c1 3.01%
CC(=O)c1cc2c(cc1N/C(=N/S(=O)(=O)c1ccc(C)cc1)c1ccc(F)cc1)OCO2 -11.9%
CCCc1nc(SCc2cc(=O)c3ccc(C)c(C)c3[nH]2)n[nH]1 3.13%
COc1ccc(S(=O)(=O)N2CCN(Cc3nc4ccc(C)cc4o3)CC2)cc1Cl -35.6%
CCC(C(=O)NCCc1ccccc1)n1nc(C)n2c(cc3sccc32)c1=O (stereo unspecified) -9.24%
Cc1ccc(NC(=O)c2ccc(-n3c(C)nnc3C)cc2)cc1F -18.8%
CCc1ccccc1NC(=O)C1CCCN(C(=O)c2cnn(-c3ccccc3)c2-n2cccc2)C1 (stereo unspecified) 0.588%
CCOC(=O)c1c(-c2ccc(C)cc2)csc1NC(=O)c1nc(SC(C)C)ncc1Cl -21%
COc1cc2nc(NCc3ccc(C)cc3)n3nc(-c4ccccc4)nc3c2cc1OC -7.26%
Cc1ccc(NC(=O)CSc2nc3ccccc3nc2N2CCOCC2)cc1 -11.7%
CCOc1ccc(N2CC(NC(=O)c3ccc(S(=O)(=O)N4CCCCC4)cc3)CC2=O)cc1 (stereo unspecified) 8.59%
Cc1ccc(-c2cc(C(F)(F)F)n3nc(C(=O)NCC45CC6CC(CC(C6)C4)C5)cc3n2)cc1 -5.72%
CCOc1ccccc1NC(=O)c1c(NC(=O)c2cccc(C)c2)sc2c1CCC2 -3.16%
COc1cc(OC)c(NS(=O)(=O)c2ccc3c(c2)CCCN3C(C)=O)cc1Cl -14.9%
CCc1cc2c(cc3c(=O)n(CC(=O)NC4CCC(C)CC4)ncn32)s1 (stereo unspecified) 2.73%
Cc1ccc(CN(Cc2ccco2)C(=O)c2ccc(OCC(C)C)cc2)cc1 3.49%
COc1ccc(NC(=O)c2c(NC(=O)COc3ccccc3)sc3c2CCC(C(C)(C)C)C3)cc1 (stereo unspecified) -19.6%
CCCCN1CCc2nc(Nc3ccc(OC)cc3OC)ncc2C1 -5.47%
Cc1nc2sccn2c(=O)c1S(=O)(=O)Nc1cc(Cl)ccc1O -3.89%
CCOC(=O)c1cc(-c2ccc(F)cc2)n(CC(=O)NC2CCCCCC2)c1C -3.46%
Cc1ccc(-n2nc(C)c3c(C)c(CCC(=O)NCc4ccccc4Cl)c(C)nc32)cc1C -10.6%
Cc1cccc(NS(=O)(=O)c2ccc3[nH]c4c(c3c2)CCCCCC4)c1 -5%
CCOc1cccc2c1N[C@@H](c1ccc(C(=O)O)cc1)[C@H]1CC=C[C@@H]21 -16.1%
Cc1ccc(C)c(N2CCN(C(=O)c3cc4c(=O)n(Cc5ccccc5)ccc4nc3C)CC2)c1 -2.43%
Cc1ccc2c(c1)N(C(=O)N1CCC(C(=O)NCCc3ccc(Cl)cc3)CC1)CC(C)O2 (stereo unspecified) -7.54%
CCCCOc1ccc(C2=NC(c3ccncc3)=Nc3ccc(OCC)cc3N2)cc1 -18.3%
CCOc1ccccc1CNC(=O)C1CCN(c2nnc(-n3c(C)ccc3C)s2)CC1 -14%
O=C(Cn1c(=O)n(CC2CCC(C(=O)NCCc3ccccc3)CC2)c(=O)c2ccccc21)Nc1ccccc1 (stereo unspecified) 2.08%
COc1ccc2sc(N(Cc3cccnc3)C(=O)C3CCCCC3)nc2c1 -8.95%
CCc1ccc(CNC(=O)Cn2nc(C)n3c(cc4cc(C)ccc43)c2=O)cc1 -18.1%
Cc1cccc(Cn2cccc2CNS(=O)(=O)c2ccccc2F)c1 -9%
CCc1ccc(NC(=O)CN2C(=O)C(c3ccc(C)cc3)=NC23CCCCC3)cc1 -7.64%
COc1ccc(NC(=O)C(Cc2ccccc2)NS(=O)(=O)c2ccc3c(c2)CCC(=O)N3)c(OC)c1 (stereo unspecified) -5.71%
Cc1ccc(Cn2c(=O)c3ccccc3n3c(-c4cccc(O)c4)nnc23)cc1 -6.68%
O=C(C1CCN(S(=O)(=O)c2cccc3nonc23)CC1)N1CCN(c2cccc(Cl)c2)CC1 -2.62%
COc1ccc(NC(=O)CSc2nc3nc(C)c(Cc4ccccc4)c(C)n3n2)cc1OC -7.19%
CCN(CC)CCOC(=O)c1ccc(NC(=O)Cn2ncc3c2-c2cc(C)ccc2OC3)cc1 -14.3%
Cc1nn(-c2ccc(F)cc2)c(-n2cccc2)c1C(=O)NCCc1ccc(Cl)cc1 -46.2%
Cc1ccc2c(Cl)cc(Cl)c(O)c2n1 -23.6%
CC(C)OCCCn1c(SCC(=O)c2ccccc2)nc2c(sc3ccccc32)c1=O -15.6%
Cc1cc(C)n2nc(CNS(=O)(=O)c3ccc(C)c(C)c3)nc2n1 -13.2%
O=C(Cc1ccc(F)cc1)NCc1ccc2c(c1)CCN2C(=O)c1ccc(F)cc1 -11.7%
O=C(CSc1nnc2ccc3ccccc3n12)Nc1ccccc1Cl -6.65%
Cc1ccc(NS(=O)(=O)c2ccc(-n3cccn3)cc2)cc1Cl 6.5%
